The chains are these.
B1: Caulobacter ParB omega fusion; a variant is named by its letters at X, in order, B8GW30 (parent)
chain: MESVVVGEPGMSEGRRGLGRGLSALLGEVDAAPAQAPGEQLGGSREAPIEILQRNPDQPRRTFREEDLEDLSNSIREKGVLQPILVRPSPDTAGEYQIVAGERAWRAAQRAGLKTVPIMVRELDDLAVLEIGIIENVQRADLNVLEEALSYKVLMEKFERTQENIAQTIGKSXSHVANXMRLLXLPDEVQSYLVSGELTAXHARAIAAAADPVALAKQIIEGGLSVRETEALARKAPNLSAGKSKGGRPPRVKDTDTQALESDLSSVLGLDVSIDHRGSTGTLTITYATLEQLDDLCNRLTRGI

Whole data set: some 81,000 sequences, median “one-hybrid fitness for binding NBS DNA” near -0.1, cut for the highest 2% near 0.36. The list shows a part of the results.

In this assay the parent is B1. The assay is described as follows: one-hybrid fitness for binding NBS DNA (the Noc-binding site; scaled: cognate 1, non-cognate 0); higher = stronger binding. The following applies: with NBS DNA site. The method, boiled down:
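The reporter was HIS3, with the binding site 19 bp from the promoter, in E. coli USO used for bacterial one-hybrid selection of Caulobacter ParB libraries with four specificity codons randomised. Growth was on M9 lacking histidine, with 0.1 mM IPTG and 5 mM 3-AT, for 48 hours at 37°C. Illumina sequencing covered plasmids before and after selection; three replicate libraries were pooled and variants with under 10 reads dropped. A fitness score is the log change in variant-to-wild-type read ratio, rescaled to the cognate and non-cognate references.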
In the case of WVHS, the “one-hybrid fitness for binding NBS DNA” value was not above 0.2.
Take HCDK: the “one-hybrid fitness for binding NBS DNA” value is not above 0.2.
As for FLRL, the “one-hybrid fitness for binding NBS DNA” value is not above 0.2.
With VTRE the figure was not above 0.2.
With MQTG the figure was not above 0.2.
Next, KHKT: 0.265.
Take RCYW: the “one-hybrid fitness for binding NBS DNA” value was not above 0.2.
Turning to RVDM, the “one-hybrid fitness for binding NBS DNA” value is not above 0.2.
Next, ECHS: not above 0.2; TIKN: not above 0.2.
Next, TCTT: not above 0.2.
Consider MIRF, for which the “one-hybrid fitness for binding NBS DNA” value was not above 0.2.
Take RRKW: the “one-hybrid fitness for binding NBS DNA” value was found to be 0.351.
For the variant FGLV, the “one-hybrid fitness for binding NBS DNA” value was not above 0.2.
RFFL: the “one-hybrid fitness for binding NBS DNA” value was not above 0.2.
On to KLAM, for which the “one-hybrid fitness for binding NBS DNA” value was not above 0.2.
For AGSN, the “one-hybrid fitness for binding NBS DNA” value is not above 0.2.
As for TYMR, the “one-hybrid fitness for binding NBS DNA” value was not above 0.2.
With NTRG, the “one-hybrid fitness for binding NBS DNA” value is not above 0.2.
For the variant YEAG, the “one-hybrid fitness for binding NBS DNA” value was not above 0.2.
With YQVG, the “one-hybrid fitness for binding NBS DNA” value was not above 0.2.
With AIGR, the “one-hybrid fitness for binding NBS DNA” value was not above 0.2.
Next, RWYP: not above 0.2.
With DVTD the figure was not above 0.2.
For EACS, the “one-hybrid fitness for binding NBS DNA” value was not above 0.2.
With IAGT the figure was not above 0.2; with RDTP, not above 0.2; with QPLL, not above 0.2.
With TTFM the figure was not above 0.2.
With GFTT the figure was not above 0.2.
As to KRYE, the “one-hybrid fitness for binding NBS DNA” value is not above 0.2.
Take NNLG: the “one-hybrid fitness for binding NBS DNA” value was not above 0.2.
For TPIA, the “one-hybrid fitness for binding NBS DNA” value is not above 0.2.
With DSMI the figure was not above 0.2; with FSTF, not above 0.2; with PTAC, not above 0.2.
Next, MHKT: not above 0.2.
In the case of IMQR, the “one-hybrid fitness for binding NBS DNA” value is not above 0.2.
Turning to GCRV, the “one-hybrid fitness for binding NBS DNA” value was not above 0.2.
For AARG, the “one-hybrid fitness for binding NBS DNA” value was not above 0.2.
Next, WRMA: not above 0.2; FQGR: not above 0.2; VATF: not above 0.2.
With QQGI the figure was not above 0.2; with HITG, not above 0.2.
Next, CKQS: not above 0.2.
As for PAAH, the “one-hybrid fitness for binding NBS DNA” value was not above 0.2.
With SGDG the figure was not above 0.2.
Next, KFVM: not above 0.2; FRTF: not above 0.2; CTIG: not above 0.2.
Next, SLRV: not above 0.2; RHHR: 0.447; LIPR: not above 0.2.
On to YASD, for which the “one-hybrid fitness for binding NBS DNA” value is not above 0.2.
Next, DIMS: not above 0.2.
CNDS: the “one-hybrid fitness for binding NBS DNA” value was not above 0.2.
With CRVC the figure was not above 0.2; with FTSV, not above 0.2.
Turning to VANV, the “one-hybrid fitness for binding NBS DNA” value was not above 0.2.
Consider GPLV, for which the “one-hybrid fitness for binding NBS DNA” value was not above 0.2.
On to VSMT, for which the “one-hybrid fitness for binding NBS DNA” value was not above 0.2.
With HIVG the figure was not above 0.2; with HDSC, not above 0.2.
Turning to AIRP, the “one-hybrid fitness for binding NBS DNA” value is not above 0.2.
With AVDS the figure was not above 0.2; with GLWQ, not above 0.2; with ASDS, not above 0.2.
Next, GQCG: not above 0.2; VTAA: not above 0.2.
Turning to FSNM, the “one-hybrid fitness for binding NBS DNA” value was not above 0.2.
For RGKW, the “one-hybrid fitness for binding NBS DNA” value was not above 0.2.
Next, GTTC: not above 0.2; MRFG: not above 0.2.
With WRDA the figure was not above 0.2; with QVGE, not above 0.2.
With PANS the figure was not above 0.2.
With HRFW, the “one-hybrid fitness for binding NBS DNA” value was not above 0.2.
With PYCM the figure was not above 0.2; with ITEW, not above 0.2; with NTWK, not above 0.2.
With VRHE the figure was not above 0.2; with YSKI, not above 0.2; with TSLR, not above 0.2.
Next, QNSC: not above 0.2.
Regarding PQCP, the “one-hybrid fitness for binding NBS DNA” value was not above 0.2.
Next, CFYT: not above 0.2; RFLN: not above 0.2; HRTA: not above 0.2.
Next, YHRS: not above 0.2; RPDW: not above 0.2; HALM: not above 0.2.
With RTKS the figure was 0.622; with CGQC, not above 0.2.
With QYFN, the “one-hybrid fitness for binding NBS DNA” value is not above 0.2.
For RERL, the “one-hybrid fitness for binding NBS DNA” value is not above 0.2.
With RKFP the figure was not above 0.2.
Regarding IFNL, the “one-hybrid fitness for binding NBS DNA” value is not above 0.2.
Regarding AGSC, the “one-hybrid fitness for binding NBS DNA” value is not above 0.2.
Next, QMNH: 0.284; HPIM: not above 0.2.
Turning to RKYR, the “one-hybrid fitness for binding NBS DNA” value was 0.573.
With PAFV the figure was not above 0.2.
With AVIT the figure was not above 0.2; with QCNR, 0.751.
With NPRQ, the “one-hybrid fitness for binding NBS DNA” value was not above 0.2.
Next, MRLT: not above 0.2; QRDQ: 0.215.
Regarding DSDG, the “one-hybrid fitness for binding NBS DNA” value was not above 0.2.
Turning to WSYF, the “one-hybrid fitness for binding NBS DNA” value is not above 0.2.
With VLGR the figure was not above 0.2; with TNGG, not above 0.2.
Turning to YDIG, the “one-hybrid fitness for binding NBS DNA” value was not above 0.2.
Next, MTMG: not above 0.2; EHWS: not above 0.2; CCNG: not above 0.2.
Next, QYPS: 0.205.
Next, KNRT: not above 0.2.
Take RYGW: the “one-hybrid fitness for binding NBS DNA” value was not above 0.2.
With DWGT the figure was not above 0.2.
As to QKDE, the “one-hybrid fitness for binding NBS DNA” value is not above 0.2.
Next, TSCS: not above 0.2; ETQS: not above 0.2; LRQH: not above 0.2.
Next, HTKW: not above 0.2; SVCS: not above 0.2; NTNA: not above 0.2.
With VKQH the figure was not above 0.2; with IYLD, not above 0.2; with NRQA, not above 0.2.
Consider FTHP, for which the “one-hybrid fitness for binding NBS DNA” value is not above 0.2.
With PFWS, the “one-hybrid fitness for binding NBS DNA” value is not above 0.2.
PTSI: the “one-hybrid fitness for binding NBS DNA” value is not above 0.2.
Next, GARA: not above 0.2; LKNS: not above 0.2.
For THYG, the “one-hybrid fitness for binding NBS DNA” value was not above 0.2.
With GHTL the figure was not above 0.2.
Next, WLMC: not above 0.2.
Consider RDFR, for which the “one-hybrid fitness for binding NBS DNA” value is not above 0.2.
In the case of DAPG, the “one-hybrid fitness for binding NBS DNA” value was not above 0.2.
With DYPW the figure was not above 0.2; with RYCR, 0.377.
Regarding YTKY, the “one-hybrid fitness for binding NBS DNA” value was not above 0.2.
As for RMVH, the “one-hybrid fitness for binding NBS DNA” value is not above 0.2.
As for PKTK, the “one-hybrid fitness for binding NBS DNA” value is not above 0.2.
With KYRE the figure was not above 0.2; with FKMI, not above 0.2.
Next, RLYP: not above 0.2; VIEF: not above 0.2; TEQG: not above 0.2.
For the variant LLVF, the “one-hybrid fitness for binding NBS DNA” value was not above 0.2.
With GLNN the figure was not above 0.2; with TKDT, not above 0.2.

The values above are taken from a collection of fitness landscapes (doi:10.1016/j.celrep.2020.107928).
